Laboratory results reported in the supplement of paper PMC10126150.
Values marked as one replicate rest on one cluster of the flow cell; about a third of the high ones do not repeat.

System: ATP
Experiment: switch fluorescence ratio, 500 uM ATP over buffer (Cy3 cluster intensity, sum of 5 cycles each) (fold (ratio)); higher = stronger signal-on switching upon ATP binding; sequences stand for … in TCGTCGGCAGCGTCAGATGTGTATAAGAGACAGTTTTTTTTTTTTTTTTTTTTTTTTT…TC
Settings: aptamer strand: ATP DNA aptamer (quencher-CACCTGGGGGAGTATTGCGGAGGAAGG + anchor), 100 nM annealed; ATP concentration: 500 uM; one replicate
Summary of the method: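 Clusters carrying Cy3-labelled switching strands on a modified Illumina MiSeq flow-cell were annealed to 100 nM quencher-labelled ATP aptamer and imaged in selection buffer. They were imaged again after 15 min with 500 uM ATP at 22 °C, over five buffer/ATP cycles with NaOH stripping and re-annealing in between. For each cluster, the fluorescence ratio is the summed Cy3 intensity of the target cycles divided by that of the buffer cycles, averaged per switch-domain sequence. Clusters outside 100-1000 RFU were left out.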
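Further: ATP exposure 15 min at 22 °C before imaging.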

Sequence	switch fluorescence ratio
AAGAGGACCC	0.953
GGCCGCTCGA	1.03
AATACGGCGA	1.08
TTGCACAAGA	0.963
ATAGAAGTGG	1.09
ATAACAGTGG	1.01
TATCGCGGGC	1.96
GCTACAAACC	1.11
CCTACCCCT	1.16
TTCAATCCTG	1.01
TACGTTTATC	1
CTATTTGCTT	1.02
TCTAACTTGG	1.01
ATACTCCCAT	2.02
GATTGGTTGA	0.977
ATTCTTTATT	1.07
TCCAGATATT	0.939
TTAACCGAAC	2.07
TTGTGCTGTG	1.01
AACTGGCATC	1.04
CATTAAGCAC	4.3
AATAGGTCTC	1.04
TTACTACTTA	1.06
AAAAATCATT	1.01
AATCA	0.961
CGGAGACGGC	1.1

Sequence	switch fluorescence ratio
GAAATATAAA	1.02
CGAATGGTA	0.987
ATGCCCACAC	1.19
GGATTTCTAT	0.99
GCTCTGGCAC	1.11
ACGTTATTCA	1.15
CGTCTTTCCT	1.04
TATGGTTAGT	1.03
TGAGAAGCAC	1.15
TTTAGAGAAA	0.964
TACGTGTGCG	0.978
CAGGGGCATA	1.09
GTGTATTTGG	0.991
TCAGGTACTT	1.03
TCCCGATCC	1.19
GGCCCTTGTA	0.97
TTCGACCTGC	1.2
GCTGTGTTTC	1.04
GTATGTGCGT	0.957
TACGTAGGCG	1
GATTGACTTA	1.03
GCGGCGTTCG	0.983
TTGGGCTCGG	0.99
CGTGATTAGG	1.03
TCACTAGGAA	1.07
TTTTCACTCT	1.01

Sequence	switch fluorescence ratio
CTTTTTTTCG	1.02
TATTATGCGC	1
AGATCAAGTC	0.993
TGGGAATCTG	0.971
CCTGGTAAGA	0.987
CAGCGGTTTC	1.06
ATAGCAAACG	1.37
TGGGCGGAAT	1.08
AAGGTATGG	1.02
AGAGTTTATG	1.02
TGTATCGTAG	0.932
ATTATAAGCT	1.01
TATCGCTGGG	1.02
AAAAAATCTA	0.998
AATAATTTAT	0.98
GCCCGTAAGT	1.05
GGTACATGAC	1.09
CTAAAGAGA	0.976
ATGTACTCCC	1.88
TTTGTTACTG	1.03
AGATAGGACA	1.07
ATCGAGGTGC	1.07
CCATTTATCG	0.985
GAGCATAGGA	1.06
ATGTTAATGT	1.01
AAGACTTACT	1.17

Sequence	switch fluorescence ratio
AGCCATATCG	0.979
CGTCCCGTTA	1.03
CTTTAGGTCA	0.981
TCGAACTATG	1.03
GTTTTGAGC	0.97
AGGTAATTTC	0.987
GTATTCCATT	0.994
AGTCTCAAGA	1.01
TTAGCCGTGA	1.02
TAAGAGATCT	1.02
TGGGTTGCGA	0.982
AAGACGTAAT	1.19
CCGTATTATG	1
GAGGAACTA	1.02
GAATCAACCA	0.998
CTCCCATATT	1.38
CTTTCTTGGC	1.04
CGTCTGACGG	1.02
ATTCTTGCCA	0.976
GGGCTCCGGC	1.07
GTTCTGGAAT	1.1
CCAGCTACAT	1.07
TAGGGATACC	1.3
TTCATATCTG	1.04
GACATCAGAC	1.06
TTAATTTTAA	0.989

Sequence	switch fluorescence ratio
TCTGATGCCG	0.989
TCGCAAAAGA	3.67
GCTCCACACG	1.49
AAATTCGTAA	1.06
CCACATTTGG	1.05
AACGGGAGGA	1.03
GGCGGCTCG	0.975
TTAGAGTTT	0.984
GGCGCAGTAG	1.42
CTACTTTTGG	0.978
GCTGTCCCTG	0.982
ATTAGCAAAA	1.06
TCAGTTCCTA	0.994
TTCTGGGCGA	1.04
ACGGCAGGT	1.06
ATCAAGTTTG	1
AAGACGAAGT	1.01
TCGATAAGTC	0.991
TGTCTACCAA	1.03
TTTGTGGCG	1.13
GGTGTTAG	0.958
CGGGCTCTTT	0.986
TATCTTTTGT	0.991
CCCCAACCGG	1.01
ATAATTGCAA	0.994
CGGACACAT	1.11

Sequence	switch fluorescence ratio
TTTTGCG	0.976
GGACCCGACA	1.1
TTGATCGAAA	1
TTTGACCA	1
AATGCACTTG	1.04
AGGAGAAGCG	0.994
AATGCAATT	0.963
GCACCCAAGG	1.25
ATAAATTTCC	1.14
GGCGATCTGC	1
ATTTGTACGC	1.05
GGGATGGGA	0.954
TTGGGAGTCC	0.965
TATCTACTGC	0.953
TGGTTTGAAG	1.03
CTTACTAGAG	0.953
CGATATGGGA	1.02
AGAATCTGTT	0.939
CGAAATAGGA	1.07
TATAAGATTC	1.05
GAGCATTGTT	1.02
CATTTGCGAC	1.39
CTTCGAGGCT	1.15
TCGCTCTCAA	1.31
